# Laboratory results from the supplement of paper PMC8728848.
# The list shows a part of the results.
# Key:
# Assay in all cases: glycan array binding signal (z-score within array); higher = stronger binding
# Conditions in all cases: glycan notation: IUPAC condensed, linker removed
# [1] = target: Fuc(a1-2)Gal6S(b1-3)GlcNAc6S
# Method in brief: (§1)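 Glycan array data were curated from 3228 arrays in the Consortium for Functional Glycomics database and kept only where the protein sequence was available. Glycan names were converted to IUPAC-condensed notation, and columns mapping to the same glycan were averaged. The binding signal is a within-array Z-score, averaged across arrays of the same protein sequence at different concentrations or buffers and across linkers. Negative Z-scores can be read as non-binding.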
# [2] = target: Fuc(a1-2)Gal6S(b1-4)Glc
# Method in brief: as §1
# [3] = target: Fuc(a1-2)Gal6S(b1-4)Glc6S
# Method in brief: as §1
# [4] = target: Fuc(a1-2)[Gal(a1-3)]Gal
# Method in brief: as §1
# [5] = target: Fuc(a1-2)[Gal(a1-3)]Gal(b1-3)GalNAc
# Method in brief: as §1
# [6] = target: Fuc(a1-2)[Gal(a1-3)]Gal(b1-3)GalNAc(b1-3)Gal(a1-4)Gal(b1-4)Glc
# Method in brief: as §1
# [7] = target: Fuc(a1-2)[Gal(a1-3)]Gal(b1-3)GlcNAc
# Method in brief: as §1
# [8] = target: Fuc(a1-2)[Gal(a1-3)]Gal(b1-3)GlcNAc(b1-2)Man(a1-3)[Fuc(a1-2)[Gal(a1-3)]Gal(b1-3)GlcNAc(b1-2)Man(a1-6)]Man(b1-4)GlcNAc(b1-4)GlcNAc
# Method in brief: as §1
# [9] = target: Fuc(a1-2)[Gal(a1-3)]Gal(b1-3)GlcNAc(b1-2)Man(a1-3)[Fuc(a1-2)[Gal(a1-3)]Gal(b1-3)GlcNAc(b1-2)Man(a1-6)]Man(b1-4)GlcNAc(b1-4)[Fuc(a1-6)]GlcNAc
# Method in brief: as §1
# [10] = target: Fuc(a1-2)[Gal(a1-3)]Gal(b1-3)GlcNAc(b1-3)GalNAc
# Method in brief: as §1
# [11] = target: Fuc(a1-2)[Gal(a1-3)]Gal(b1-3)GlcNAc(b1-6)GalNAc
# Method in brief: as §1
# [12] = target: Fuc(a1-2)[Gal(a1-3)]Gal(b1-4)Glc
# Method in brief: as §1
# [13] = target: Fuc(a1-2)[Gal(a1-3)]Gal(b1-4)GlcNAc
# Method in brief: as §1
# [14] = target: Fuc(a1-2)[Gal(a1-3)]Gal(b1-4)GlcNAc(b1-2)Man
# Method in brief: as §1
# [15] = target: Fuc(a1-2)[Gal(a1-3)]Gal(b1-4)GlcNAc(b1-2)Man(a1-3)[Fuc(a1-2)[Gal(a1-3)]Gal(b1-4)GlcNAc(b1-2)Man(a1-6)]Man(b1-4)GlcNAc(b1-4)GlcNAc
# Method in brief: as §1
# [16] = target: Fuc(a1-2)[Gal(a1-3)]Gal(b1-4)GlcNAc(b1-2)Man(a1-3)[Fuc(a1-2)[Gal(a1-3)]Gal(b1-4)GlcNAc(b1-2)Man(a1-6)]Man(b1-4)GlcNAc(b1-4)[Fuc(a1-6)]GlcNAc
# Method in brief: as §1
# [17] = target: Fuc(a1-2)[Gal(a1-3)]Gal(b1-4)GlcNAc(b1-3)GalNAc
# Method in brief: as §1
# [18] = target: Fuc(a1-2)[Gal(a1-3)]Gal(b1-4)GlcNAc(b1-6)GalNAc
# Method in brief: as §1
# [19] = target: Fuc(a1-2)[Gal(a1-3)]Gal(b1-4)[Fuc(a1-3)]Glc
# Method in brief: as §1
# [20] = target: Fuc(a1-2)[Gal(a1-3)]Gal(b1-4)[Fuc(a1-3)]GlcNAc
# Method in brief: as §1
# [21] = target: Fuc(a1-2)[Gal(a1-3)]Gal(b1-4)[Fuc(a1-3)]GlcNAc(b1-3)GalNAc
# Method in brief: as §1
# [22] = target: Fuc(a1-2)[Gal(a1-4)]Gal(b1-4)GlcNAc
# Method in brief: as §1
# [23] = target: Fuc(a1-2)[GalNAc(a1-3)]Gal
# Method in brief: as §1
# [24] = target: Fuc(a1-2)[GalNAc(a1-3)]Gal(b1-3)GalNAc(a1-3)[Fuc(a1-2)]Gal(b1-4)GlcNAc
# Method in brief: as §1
# [25] = target: Fuc(a1-2)[GalNAc(a1-3)]Gal(b1-3)GalNAc(b1-3)Gal(a1-4)Gal(b1-4)Glc
# Method in brief: as §1
# [26] = target: Fuc(a1-2)[GalNAc(a1-3)]Gal(b1-3)GlcNAc
# Method in brief: as §1
# [27] = target: Fuc(a1-2)[GalNAc(a1-3)]Gal(b1-3)GlcNAc(b1-2)Man(a1-3)[Fuc(a1-2)[GalNAc(a1-3)]Gal(b1-3)GlcNAc(b1-2)Man(a1-6)]Man(b1-4)GlcNAc(b1-4)GlcNAc
# Method in brief: as §1
# [28] = target: Fuc(a1-2)[GalNAc(a1-3)]Gal(b1-3)GlcNAc(b1-2)Man(a1-3)[Fuc(a1-2)[GalNAc(a1-3)]Gal(b1-3)GlcNAc(b1-2)Man(a1-6)]Man(b1-4)GlcNAc(b1-4)[Fuc(a1-6)]GlcNAc
# Method in brief: as §1
# [29] = target: Fuc(a1-2)[GalNAc(a1-3)]Gal(b1-3)GlcNAc(b1-3)GalNAc
# Method in brief: as §1
# [30] = target: Fuc(a1-2)[GalNAc(a1-3)]Gal(b1-3)GlcNAc(b1-6)GalNAc
# Method in brief: as §1
# [31] = target: Fuc(a1-2)[GalNAc(a1-3)]Gal(b1-4)Glc
# Method in brief: as §1
# [32] = target: Fuc(a1-2)[GalNAc(a1-3)]Gal(b1-4)GlcNAc
# Method in brief: as §1
# [33] = target: Fuc(a1-2)[GalNAc(a1-3)]Gal(b1-4)GlcNAc(b1-2)Man
# Method in brief: as §1
# [34] = target: Fuc(a1-2)[GalNAc(a1-3)]Gal(b1-4)GlcNAc(b1-2)Man(a1-3)[Fuc(a1-2)[GalNAc(a1-3)]Gal(b1-4)GlcNAc(b1-2)Man(a1-6)]Man(b1-4)GlcNAc(b1-4)GlcNAc
# Method in brief: as §1
# [35] = target: Fuc(a1-2)[GalNAc(a1-3)]Gal(b1-4)GlcNAc(b1-2)Man(a1-3)[Fuc(a1-2)[GalNAc(a1-3)]Gal(b1-4)GlcNAc(b1-2)Man(a1-6)]Man(b1-4)GlcNAc(b1-4)[Fuc(a1-6)]GlcNAc
# Method in brief: as §1
# [36] = target: Fuc(a1-2)[GalNAc(a1-3)]Gal(b1-4)GlcNAc(b1-3)Gal(b1-4)GlcNAc
# Method in brief: as §1
# [37] = target: Fuc(a1-2)[GalNAc(a1-3)]Gal(b1-4)GlcNAc(b1-3)Gal(b1-4)GlcNAc(b1-3)Gal(b1-4)GlcNAc
# Method in brief: as §1
# [38] = target: Fuc(a1-2)[GalNAc(a1-3)]Gal(b1-4)GlcNAc(b1-3)GalNAc
# Method in brief: as §1
# [39] = target: Fuc(a1-2)[GalNAc(a1-3)]Gal(b1-4)GlcNAc(b1-3)[Fuc(a1-2)[GalNAc(a1-3)]Gal(b1-4)GlcNAc(b1-6)]GalNAc
# Method in brief: as §1
# [40] = target: Fuc(a1-2)[GalNAc(a1-3)]Gal(b1-4)GlcNAc(b1-6)GalNAc
# Method in brief: as §1
# [41] = target: Fuc(a1-2)[GalNAc(a1-3)]Gal(b1-4)[Fuc(a1-3)]GlcNAc
# Method in brief: as §1
# [42] = target: Fuc(a1-2)[GalNAc(a1-3)]Gal(b1-4)[Fuc(a1-3)]GlcNAc(b1-3)GalNAc
# Method in brief: as §1
# [43] = target: Fuc(a1-2)[GalNAc(a1-4)]Gal(b1-4)GlcNAc
# Method in brief: as §1
# [44] = target: Fuc(a1-2)[GalNAc(b1-3)]Gal
# Method in brief: as §1
# [45] = target: Fuc(a1-3)GlcNAc
# Method in brief: as §1
binder,measurement,setting,value
Clrb (Mus musculus) (protein) ITGATKTEQIPVNKTYAACPQNWIGVENKCFYFSEYPSNWTFAQAFCMAQEAQLARFDNQDELNFLMRYKANFDSWIGLHRESSEHPWKWTDNTEYNNTIPIRGEERFAYLNNNGISSTRIYSLRMWICSKLNSYSLHCQTPFFPSGTKHHHHHHHHG,glycan array binding signal (z-score),[1],-0.079
same,glycan array binding signal (z-score),[2],-0.313
same,glycan array binding signal (z-score),[3],-0.186
same,glycan array binding signal (z-score),[4],-0.293
same,glycan array binding signal (z-score),[5],-0.421
same,glycan array binding signal (z-score),[6],-0.424
same,glycan array binding signal (z-score),[7],-0.244
same,glycan array binding signal (z-score),[8],-0.206
same,glycan array binding signal (z-score),[9],-0.384
same,glycan array binding signal (z-score),[10],-0.316
same,glycan array binding signal (z-score),[11],-0.43
same,glycan array binding signal (z-score),[12],-0.463
same,glycan array binding signal (z-score),[13],-0.382
same,glycan array binding signal (z-score),[14],-0.471
same,glycan array binding signal (z-score),[15],-0.479
same,glycan array binding signal (z-score),[16],-0.342
same,glycan array binding signal (z-score),[17],-0.35
same,glycan array binding signal (z-score),[18],-0.025
same,glycan array binding signal (z-score),[19],-0.477
same,glycan array binding signal (z-score),[20],-0.16
same,glycan array binding signal (z-score),[21],-0.354
same,glycan array binding signal (z-score),[22],-0.157
same,glycan array binding signal (z-score),[23],-0.264
same,glycan array binding signal (z-score),[24],-0.188
same,glycan array binding signal (z-score),[25],-0.407
same,glycan array binding signal (z-score),[26],-0.508
same,glycan array binding signal (z-score),[27],-0.318
same,glycan array binding signal (z-score),[28],-0.308
same,glycan array binding signal (z-score),[29],-0.459
same,glycan array binding signal (z-score),[30],-0.441
same,glycan array binding signal (z-score),[31],-0.353
same,glycan array binding signal (z-score),[32],2.14
same,glycan array binding signal (z-score),[33],-0.258
same,glycan array binding signal (z-score),[34],-0.491
same,glycan array binding signal (z-score),[35],-0.417
same,glycan array binding signal (z-score),[36],0.254
same,glycan array binding signal (z-score),[37],-0.215
same,glycan array binding signal (z-score),[38],-0.327
same,glycan array binding signal (z-score),[39],-0.374
same,glycan array binding signal (z-score),[40],0.23
same,glycan array binding signal (z-score),[41],-0.385
same,glycan array binding signal (z-score),[42],-0.299
same,glycan array binding signal (z-score),[43],1.88
same,glycan array binding signal (z-score),[44],-0.248
same,glycan array binding signal (z-score),[45],-0.352
